Measurements as given in PubChem BioAssay AID485281 (National Center for Advancing Translational Sciences (NCATS), 2010).
The campaign covered roughly 350,000 compounds. About 260 (0.074%) were called active. Inconclusive results, whose numbers are uncertain, are shown with a selection of clear calls. The call rests on the fitted dose curve; in most records, active means well fitted inhibition curve with a large enough effect; inconclusive means small, poorly fitted or top-dose-only effect; inactive means no such curve, though single readings can be large or run the other way. A potency beside an inconclusive call is a rough fit, not a confirmed value.

What follows are compounds tested against Ferritin light chain (Equus caballus) (UniProt P02791) (assay: qHTS Assay for Identification of Novel General Anesthetics). Conditions: apoferritin/1-aminoanthracene competitive binding, fluorescence; activity change, negative = displacement: at 77.5 µM (top of the series).
Outline: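 In PBS, apoferritin at 10 uM is loaded with 1-AMA from a 50% saturated solution. After 10 min of compound exposure at ambient temperature, reduced 535 nm fluorescence indicates probe displacement.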
Further: nearly all actives have a fitted effect of over 20% in size.
On the % scale 0 is the no-effect control and ±100 the full control effect; potency means the concentration at half of the fitted maximal effect; tags describe the fitted curve by direction and shape.

Chain of UniProt P02791 (P02791 whole entry, looked up): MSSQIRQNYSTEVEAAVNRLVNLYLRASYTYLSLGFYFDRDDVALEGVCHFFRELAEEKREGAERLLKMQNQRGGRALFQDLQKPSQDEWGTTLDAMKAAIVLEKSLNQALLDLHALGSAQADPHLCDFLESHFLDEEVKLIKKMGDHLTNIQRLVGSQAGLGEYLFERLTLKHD

Row | SMILES | activity change, negative = displacement | Potency
1 | COc1ccccc1CNC(=O)Cn1c(=O)nc(-c2ccccc2)c2ccccc21 | inactive: 30.7% | 
2 | CCCn1c(-c2nonc2N)nc2ccccc21 | inactive: 8.31% | 
3 | N#Cc1c(NC(=S)NC(=O)Cc2cccs2)sc2c1CCCCC2 |  | inconclusive: 17.8 µM [inhibitor, partial curve]
4 | CC(=O)c1c(C)[nH]c(C(=O)NCc2ccccc2Cl)c1C |  | inconclusive: 35.5 µM [inhibitor, partial curve]
5 | Cc1cccc(N2CCN(C(=O)CN3C(=O)COc4ccc(S(=O)(=O)N5CCCC5)cc43)CC2C)c1 (stereo unspecified) | inactive: -8.2% | 
6 | Cc1ccccc1CN1CCNC(=O)C1CC(=O)NC1CCCCCCC1 (stereo unspecified) |  | inconclusive: 25.1 µM [inhibitor, partial curve]
7 | Cc1cc(C)cc(Oc2cc(NC(=O)c3cn(C)nc3C)cc([N+](=O)[O-])c2)c1 |  | inconclusive: 7.08 µM [inhibitor, full curve]
8 | O=C(CC1(O)C(=O)N(Cc2ccc3c(c2)OCO3)c2ccccc21)c1ccccc1 (stereo unspecified) |  | inconclusive: 39.8 µM [inhibitor, partial curve]
9 | Cc1ccc(/C=C/c2onc(C)c2S(=O)(=O)N2CCC(C(=O)NCc3ccc(OC(C)C)cc3)CC2)cc1 |  | inconclusive: 7.94 µM [inhibitor, partial curve]
10 | Cc1ccc(NC(=O)c2ccc([N+](=O)[O-])cc2Cl)nc1 | inactive: -11.1% | 
11 | COc1ccc(C)cc1NC(=O)NNC(=O)C1CCC(C(C)(C)C)CC1 (stereo unspecified) |  | inconclusive: 31.6 µM [inhibitor, partial curve]
12 | Cc1ccc(Nc2nc3ccccc3o2)cc1F |  | inconclusive: 8.91 µM [inhibitor, full curve]
13 | O=[N+]([O-])c1ccccc1/C=C/CN1CCSCC1 |  | inconclusive: 25.1 µM [inhibitor, partial curve]
14 | Cc1cc(C(=O)NCCCn2ccnc2)sc1-c1ccccc1 | inactive: 7.38% | 
15 | Nc1ccc(S(=O)(=O)Nc2cccc3cccnc23)cc1 |  | inconclusive: 28.2 µM [inhibitor, partial curve]
16 | Cc1cc(N/N=C/c2ccc(N(C)C)cc2)c2ccccc2n1 |  | inconclusive: 25.1 µM [inhibitor, single point]
17 | O=C(CN1C(=O)C2C3C=CC(C3)C2C1=O)Nc1nc(SCc2ccc(Cl)cc2)n[nH]1 (stereo unspecified) |  | inconclusive: 28.2 µM [inhibitor, partial curve]
18 | CC(C)(C)NC(=O)CSc1ncnc2c1nnn2Cc1ccccc1Cl |  | inconclusive: 31.6 µM [inhibitor, partial curve]
19 | O=C(Cn1[nH]c(=O)c2ccccc2c1=O)OCC(=O)N1CCCc2ccccc21 |  | inconclusive: 28.2 µM [inhibitor, single point]
20 | COc1ccc(-c2ccc(=O)n(CC(=O)Nc3cccc(O)c3)n2)cc1OC |  | inconclusive: 22.4 µM [inhibitor, partial curve]
21 | CCOc1cccc(CNc2ccc(O)cc2)c1OCc1ccc(Cl)cc1 |  | inconclusive: 17.8 µM [inhibitor, partial curve]
22 | N/C(=N\OC(=O)C12CC3CC(CC(C3)C1)C2)c1ccccn1 |  | inconclusive: 22.4 µM [inhibitor, partial curve]

Row | SMILES | activity change, negative = displacement | Potency
23 | O=C(COc1ccccc1)NC(NC(=S)Nc1ccccc1C(=O)O)C(Cl)(Cl)Cl (stereo unspecified) | inactive: -19.5% | 
24 | Cc1cccc2sc(N(Cc3cccnc3)C(=O)C3COc4ccccc4O3)nc12 (stereo unspecified) | inactive: -5.46% | 
25 | O=c1c2ccccc2nnn1CSc1ccccc1F |  | inconclusive: 28.2 µM [inhibitor, partial curve]
26 | O=c1cc(NS(=O)(=O)c2ccccc2)nc(SCc2ccc(Cl)cc2)[nH]1 |  | inconclusive: 20 µM [inhibitor, partial curve]
27 | COc1cccc(-c2nc(CS(=O)CC(=O)NC3CCCCC3)c(C)o2)c1 (stereo unspecified) |  | inconclusive: 11.2 µM [inhibitor, partial curve]
28 | CCNc1nc(N)c(C(=O)c2ccc(Cl)s2)s1 | inactive: -23.1% | 
29 | CCCCN(CC)S(=O)(=O)c1ccc(C(=O)N(CCCN(C)C)c2nc3cc(C)cc(C)c3s2)cc1 |  | inconclusive: 25.1 µM [inhibitor, partial curve]
30 | Clc1cccc(Cl)c1Cn1cc(Br)cn1 |  | inconclusive: 25.1 µM [inhibitor, partial curve]
31 | O=C(c1cc2n(n1)C(C(F)(F)F)CC(c1ccco1)N2)N1CCc2ccccc2C1 (stereo unspecified) |  | inconclusive: 20 µM [inhibitor, single point]
32 | Cc1ccccc1NC(=O)Cn1nnc(C(=O)NCCc2ccccc2)c1N |  | inconclusive: 3.55 µM [inhibitor, full curve, poor fit]
33 | CCOC(=O)c1c(C)[nH]c(C(=O)COC(=O)C(C)N2C(=O)C3CCCCC3C2=O)c1C (stereo unspecified) |  | inconclusive: 25.1 µM [inhibitor, partial curve]
34 | COc1ccccc1CCC(=O)Nc1ccc2c(c1)CN(Cc1ccc(CO)o1)CC2 |  | inconclusive: 25.1 µM [inhibitor, partial curve]
35 | COc1ccc(OC)c2sc(N(CCN(C)C)C(=O)c3cc(Cl)sc3Cl)nc12 |  | inconclusive: 35.5 µM [inhibitor, single point]
36 | CC(=O)c1cccc(NC(=O)Cn2nc(C(F)(F)F)c3c2CCC3)c1 |  | inconclusive: 17.8 µM [inhibitor, partial curve]
37 | CCCOc1ccc2c(c1)C(=NN=C(N)N)c1cc(OCCC)ccc1-2 |  | inconclusive: 39.8 µM [inhibitor, single point]
38 | Cc1ccc2nc(Cl)c3cc(C(=O)NCCCN(C)Cc4ccccc4)sc3c2c1 |  | inconclusive: 20 µM [inhibitor, partial curve]
39 | c1coc(C2Nc3cccc4cccc(c34)N2)c1 |  | inconclusive: 25.1 µM [inhibitor, partial curve]
40 | O=C(/C=C/NNC(=O)c1cccc(Br)c1)c1ccccc1 |  | inconclusive: 44.7 µM [inhibitor, partial curve, poor fit]
41 | O=C(Cc1ccccc1)NC(=S)Nc1cccc(C(F)(F)F)c1 |  | inconclusive: 15.8 µM [inhibitor, partial curve]
42 | CC(C)(C)OC(=O)NCCc1nnc(SCc2ccc(Cl)cc2Cl)o1 |  | inconclusive: 35.5 µM [inhibitor, partial curve]
43 | Cc1cc(NC(=O)CCCSc2nc(-c3ccco3)cc(C(F)(F)F)n2)n(-c2ccccc2)n1 | inactive: -0.551% | 
44 | Cc1cc(C)c(C(=O)NC2CC(C)(C)Cc3c2cnn3-c2ccccc2)o1 (stereo unspecified) |  | inconclusive: 10 µM [inhibitor, partial curve]

Row | SMILES | activity change, negative = displacement | Potency
45 | CCCC(C)NC(=O)CN1C(=O)c2cccc3cccc1c23 (stereo unspecified) | inactive: 190% | 
46 | Cc1cnc(NC(=O)c2ccc3c(c2)C(=O)N(Cc2ccco2)C3=O)s1 |  | inconclusive: 12.6 µM [inhibitor, partial curve]
47 | CNc1cccccc1=S |  | inconclusive: 39.8 µM [inhibitor, single point]
48 | Cc1ccc(OCC(=O)N/N=C\c2ccc(C)o2)c([N+](=O)[O-])c1 | inactive: -12.2% | 
49 | CC(=O)OCC(=O)[C@@]1(O)CC[C@H]2[C@@H]3C[C@H](C)C4=CC(=O)C=C[C@]4(C)[C@H]3[C@@H](O)C[C@@]21C | inactive: -10.7% | 
50 | O=C(Nc1ccccc1)O/N=C1\CCCCC1c1ccc([N+](=O)[O-])cc1[N+](=O)[O-] (stereo unspecified) |  | inconclusive: 35.5 µM [inhibitor, partial curve]
51 | COc1ccc(/C(N)=N/O)cc1O | inactive: 1.25% | 
52 | COc1ccc(NC(=O)COC(=O)CCCc2c[nH]c3ccccc23)cc1 |  | inconclusive: 50.1 µM [inhibitor, partial curve]
53 | C=C1CC2C=C(NC(C)=O)CC(C1)C2 (stereo unspecified) |  | inconclusive: 35.5 µM [inhibitor, partial curve]
54 | CC(C)(C)c1ccc(C(=O)/C=C2\NC(=O)CS2)cc1 |  | inconclusive: 25.1 µM [inhibitor, partial curve]
55 | CC(C)(C)CC(C)(C)c1ccc(OCC(=O)Nc2ccc(S(=O)(=O)Nc3ncccn3)cc2)cc1 |  | inconclusive: 11.2 µM [inhibitor, single point]
56 | COc1ccc(CN2CCN(c3ccccn3)CC2)cc1OCc1ccccc1 | inactive: -5.22% | 
57 | N#C/C(=C\c1ccc(O)c([N+](=O)[O-])c1)c1nc2ccccc2s1 |  | inconclusive: 10 µM [inhibitor, partial curve]
58 | Cn1c(=Nc2ccccc2)sc2ccccc21 |  | inconclusive: 28.2 µM [inhibitor, partial curve]
59 | O=c1cc(N2CCCCC2)c(-c2ccccc2)nn1Cc1c(Cl)cccc1Cl |  | inconclusive: 5.01 µM [inhibitor, full curve, poor fit]
60 | c1ccc(N2CCN(c3nc(-c4ccccn4)nc4ccccc34)CC2)cc1 |  | inconclusive: 15.8 µM [inhibitor, partial curve]
61 | COc1ccc([N+](=O)[O-])cc1NC(=S)Nc1ccccc1 | inactive: -12.2% | 
62 | CCS(=O)(=O)N1CCN(c2ccc([N+](=O)[O-])c(NCC3CCCO3)c2)CC1 (stereo unspecified) |  | inconclusive: 35.5 µM [inhibitor, single point]
63 | CN(C)S(=O)(=O)c1cc(NC(=O)COC(=O)C2COc3ccccc3O2)ccc1Cl (stereo unspecified) |  | inconclusive: 14.1 µM [inhibitor, partial curve]
64 | CCc1ccc(NC(=O)c2ccc3nc(N)sc3c2)cc1 |  | inconclusive: 35.5 µM [inhibitor, partial curve]
65 | N#Cc1cccc(NC(=O)CCC2CCCC2)c1 |  | inconclusive: 31.6 µM [inhibitor, partial curve]
66 | N#CC(c1cccc(Cl)c1)c1ccc2c(C(F)(F)F)cc(C(F)(F)F)nc2n1 (stereo unspecified) |  | inconclusive: 1.58 µM [inhibitor, full curve]
